Out of some 150,000 compounds screened, about 540 (0.36%) showed an effect of 50% or more. The list shows a part of the results.
The molecules below were run on Plasmodium falciparum (assay: Primary screen in NF54 nanoGlo assay, in single point, at 2uM, 72h; a lower Z score goes with more inhibition). Conditions: timepoint 72 hour.
Type: functional, Erythrocyte
COc1c(C)cc(N)cc1Br was tested, and the “% Inhibition” value was 3% and the Z score was -0.53.
CCN1CCCn2nc(C3CCN(C(=O)c4cccc(C(F)(F)F)c4)CC3)cc2C1=O was tested, and the “% Inhibition” value was -1% and the Z score was 0.16.
With Cc1ccc(NC(=O)CCS(=O)(=O)c2cc(-c3cc(C)no3)ccc2C)c(Br)c1 the “% Inhibition” value was -13% and the Z score was 1.75.
For CC(C)(C)n1ncnc1NC(=O)CCN1CCCS1(=O)=O, the “% Inhibition” value was 10% and the Z score was -1.69.
In the case of CCn1cncc1Cn1ccnc1-c1ccc(O)c(OC)c1, the “% Inhibition” value was -8% and the Z score was 1.33.
For Cc1noc(C)c1S(=O)(=O)N(C[C@H]1CCOC1)C1CC1, the “% Inhibition” value was -7% and the Z score was 0.59.
For Cc1cc(=O)c(C(=O)N[C@@H](C)c2nc(C)sc2C)c[nH]1, the “% Inhibition” value was 0% and the Z score was 0.01.
CN(Cc1cnn(-c2ccccc2)c1)c1ccncc1Cl was tested, and the “% Inhibition” value was 2% and the Z score was -0.33.
In the case of Cc1ccc(NC(=O)c2ccc3c(c2)CCCN3S(=O)(=O)c2ccc(Cl)cc2)c(C)c1, the “% Inhibition” value was -7% and the Z score was 1.29.
In the case of COc1ccc(S(=O)(=O)Nc2nc(C)cs2)cn1, the “% Inhibition” value was 6% and the Z score was -0.74.
COCC(C)(C)NC(=O)[C@H]1CCCN(C2CCN(C3Cc4ccccc4C3)CC2)C1 was tested, and the “% Inhibition” value was 0% and the Z score was -0.08.
With O=C(c1cnns1)N1CCC[C@H]1c1ccc2c(c1)OCCO2 the “% Inhibition” value was -5% and the Z score was 0.66.
In the case of Cc1ccc(-c2cn(CC(=O)NCc3ccc(F)cc3)nc2N(C)C)cc1, the “% Inhibition” value was -14% and the Z score was 1.6.
With O=C([C@H]1C[C@@H]1c1ccccc1Cl)N1CCCn2nnnc21 the “% Inhibition” value was -4% and the Z score was 0.59.
COC1(C(F)(F)F)CCN(c2nnnn2C2CC3CCC2C3)CC1 (stereo not drawn) was tested, and the “% Inhibition” value was -12% and the Z score was 1.58.
For CN1C(=O)CC[C@@H]1CN1CCN(c2ccccn2)CC1, the “% Inhibition” value was -21% and the Z score was 2.65.
In the case of Cc1ccc(C)c(-n2nc(C3CC3)nc2-c2ccc(=O)[nH]n2)c1, the “% Inhibition” value was -7% and the Z score was 0.96.
For COC(=O)c1ccccc1NC(=O)[C@H]1C[C@H]2CCCN2[C@@]12C(=O)Nc1ccccc12, the “% Inhibition” value was -10% and the Z score was 0.94.
In the case of CCC(Cn1cncn1)NC1CCN(c2cccc(OC(F)(F)F)c2)C1 (stereo not drawn), the “% Inhibition” value was -4% and the Z score was 0.55.
In the case of CC(C)c1cnc(CN[C@@](C)(CO)C2CCCCC2)o1, the “% Inhibition” value was -3% and the Z score was 0.32.
With Cc1n[nH]c(CN(C)Cc2ccc(-n3cccn3)cc2)n1 the “% Inhibition” value was -8% and the Z score was 1.43.
CN(C)[C@@H](CNc1nccn2nnnc12)c1cccs1 was tested, and the “% Inhibition” value was -1% and the Z score was 0.24.
For CCc1ccsc1C(=O)N1CCCC[C@@H]1C(=O)O, the “% Inhibition” value was -9% and the Z score was 1.15.
For Cc1cc(C)nc(NS(=O)(=O)c2ccc(NC(=O)c3cc(-c4ccccc4)on3)cc2)n1, the “% Inhibition” value was 19% and the Z score was -2.18.
COCC(=O)NC1CCN(c2ccccc2C(=O)N2CCCCC2)CC1 was tested, and the “% Inhibition” value was -11% and the Z score was 1.67.
O=C(c1ccc(OC2CCC2)cc1Cl)N1CC[C@@](F)(CO)C1 was tested, and the “% Inhibition” value was -4% and the Z score was 0.46.
For NC(=O)CN1CCC2(CC1)NC(c1ccc(OC(F)(F)F)cc1)=NO2, the “% Inhibition” value was 30% and the Z score was 0.05.
CCc1nc(-c2c3n(c(=O)n(Cc4ccc(C(F)(F)F)cc4)c2=O)CCCC3)no1 was tested, and the “% Inhibition” value was 1% and the Z score was -0.09.
With CC[C@]1(CO)CCCN(C(=O)c2cccc(-c3c(C)cccc3Cl)c2)C1 the “% Inhibition” value was -1% and the Z score was 0.17.
In the case of CC(C)S(=O)(=O)N1CCN(C(=O)[C@H](Cc2ccccc2)n2cnnn2)CC1, the “% Inhibition” value was -13% and the Z score was 1.63.
In the case of O=C(CCc1nc(-c2nnc[nH]2)no1)N1CC[C@H](c2c(F)cccc2F)C1, the “% Inhibition” value was -17% and the Z score was 1.94.
For O=C1CCC(=O)N1CCCc1ccc(Cl)cc1, the “% Inhibition” value was 2% and the Z score was -0.31.
With CCN(CC(C)(C)O)C(=O)NCc1cccc(-n2ccnc2)c1 the “% Inhibition” value was -7% and the Z score was 0.89.
O=C(Nc1nc2ccccc2s1)C1CC1c1ccccc1 (stereo not drawn) was tested, and the “% Inhibition” value was -30% and the Z score was 3.52.
In the case of CCn1cc(C(=O)NC[C@H]2Cc3ccccc3CN2)c(C(C)C)n1, the “% Inhibition” value was -1% and the Z score was 0.15.
c1cnc(CN2C[C@@H]3CC[C@H]2CN(C2Cc4ccccc4C2)C3)nc1 was tested, and the “% Inhibition” value was -9% and the Z score was 1.62.
For COc1ccnc(NC(=O)c2ccc(C)[nH]c2=O)c1, the “% Inhibition” value was -6% and the Z score was 0.75.
For COc1ccc(Cl)cc1NC(=O)COC(=O)CCC(=O)Nc1cccc(C(=O)OCC(C)C)c1, the “% Inhibition” value was -6% and the Z score was 0.96.
For CC1CC(N(C(=O)c2ccco2)c2ccccc2)c2ccccc2N1 (stereo not drawn), the “% Inhibition” value was -2% and the Z score was 0.26.
COCCN1C(=O)CC(CC(=O)N2CCCC(C)C2)(c2ccccc2F)C1=O (stereo not drawn) was tested, and the “% Inhibition” value was -9% and the Z score was 1.7.
In the case of O=C(O)c1ccc(N[C@H]2CCOC2)c(Br)c1, the “% Inhibition” value was -10% and the Z score was 0.91.
In the case of COc1ccc2c(c1F)CC[C@@H]2Nc1ccc(CN(C(C)=O)C(C)C)cc1, the “% Inhibition” value was 0% and the Z score was -0.03.
For C=CCOc1nc(NCC)nc(NCC)n1, the “% Inhibition” value was -3% and the Z score was 0.34.
CN(C)S(=O)(=O)N1C[C@H]2CC[C@@H](C1)N(Cc1nc(C(F)(F)F)no1)C2 was tested, and the “% Inhibition” value was 1% and the Z score was -0.15.
With COc1cc(Cl)c(NS(=O)(=O)c2cc(-c3cc(C)no3)ccc2OC)c(OC)c1 the “% Inhibition” value was -8% and the Z score was 0.99.
With COc1ccnc(CC(=O)N2CCC(Cc3cccc(F)c3F)CC2)c1 the “% Inhibition” value was -2% and the Z score was 0.28.
O=S(=O)(NCCc1c[nH]c2ncccc12)c1ccc(Cl)cc1 was tested, and the “% Inhibition” value was -8% and the Z score was 0.89.
Cc1c(-c2c(-c3ccccc3)ncn2Cc2noc(-c3ccco3)n2)cnn1C was tested, and the “% Inhibition” value was 6% and the Z score was -0.88.
With Cc1ccc(Cl)c(S(=O)(=O)Cc2cnn(CCF)c2)c1 the “% Inhibition” value was -12% and the Z score was 2.03.
For Cn1cc(C(=O)N2CC3(COC(C)(C)OC3)C2)nn1, the “% Inhibition” value was -7% and the Z score was 1.12.
For COc1cnc(C(=O)NC[C@@H]2CCCC[C@H]2O)nc1, the “% Inhibition” value was 6% and the Z score was -0.88.
With COc1cc([C@H]2NC3(CCCCC3)C(=O)N2C)cc(OC)c1OC the “% Inhibition” value was 5% and the Z score was -0.51.
With CCCS(=O)(=O)N(c1cc(-n2ncc(=O)n(C)c2=O)c(F)cc1Cl)S(=O)(=O)CCC the “% Inhibition” value was -1% and the Z score was 0.2.
CCOc1ccc(C[C@@H]2CC[C@H](CN3CCOCC3)O2)cc1CNC was tested, and the “% Inhibition” value was 18% and the Z score was -2.34.
In the case of O=C1C[C@H](Cc2ccc(C(=O)Nc3nc4ccccc4[nH]3)cc2)C(=O)N1, the “% Inhibition” value was 7% and the Z score was -0.81.
O=C(Nc1ccc2c(c1)OCO2)N1C2CCC1COC2 was tested, and the “% Inhibition” value was 1% and the Z score was -0.09.
For O=C(O)c1noc2cc(Br)ccc12, the “% Inhibition” value was -12% and the Z score was 1.41.
CN(CCCNC(=O)c1ccco1)CC(F)(F)F was tested, and the “% Inhibition” value was -8% and the Z score was 0.99.
In the case of CN(C[C@H]1CCCCO1)C(=O)c1cc2c(Cl)cccc2[nH]1, the “% Inhibition” value was -7% and the Z score was 1.22.
In the case of COc1ccc(C2=NN(c3ccccc3)[C@H](c3cn(-c4ccccc4)nc3-c3ccc(F)cc3)C2)cc1, the “% Inhibition” value was 3% and the Z score was -0.38.
With CCCC[C@H](Nc1nccc(-n2cccn2)n1)C1CCC1 the “% Inhibition” value was -7% and the Z score was 1.19.
With COc1ccnc(NC(=O)c2cc(C3CC3)no2)c1 the “% Inhibition” value was -17% and the Z score was 3.21.
With O=C(Cc1cc(Cl)ccc1Br)N1CC(O)C1 the “% Inhibition” value was 0% and the Z score was 0.07.
In the case of CCOC(=O)c1nccn1-c1ccc(OC[C@H]2CCCO2)cc1, the “% Inhibition” value was -3% and the Z score was 0.44.
With COc1cccc(CNC(=O)CN2C(c3ccccc3)=C[C@@H](c3ccc(Cl)cc3)n3nnnc32)c1 the “% Inhibition” value was 2% and the Z score was -0.16.
O=C(CC1CCCCCC1)N1CCCC[C@H]1c1nc(=O)[nH][nH]1 was tested, and the “% Inhibition” value was 8% and the Z score was -1.31.
For O=C(CCCn1cccn1)NS(=O)(=O)c1ccc2ccccc2c1, the “% Inhibition” value was -7% and the Z score was 0.99.
In the case of C=C(C)CN(CC)S(=O)(=O)c1c(F)cccc1F, the “% Inhibition” value was 12% and the Z score was -2.3.
With CCOC(=O)N1CC[C@H](NCCc2csc(CC)n2)C1 the “% Inhibition” value was 7% and the Z score was -1.01.
With Cc1nc(NCc2ccc3c(c2)CCCC3)c2c(C)noc2n1 the “% Inhibition” value was -6% and the Z score was 0.51.
CCN1CCN(CC(=O)N2C[C@H](C)[C@@](O)(C3CC3)C2)CC1 was tested, and the “% Inhibition” value was -18% and the Z score was 1.55.
CCC(=O)NS(=O)(=O)c1ccc(C)nc1 was tested, and the “% Inhibition” value was 3% and the Z score was -0.27.
For CCCCN(Cc1cccn1Cc1ccc(Br)cc1)C(=O)CN(CCC(C)C)C(=O)COc1ccccc1, the “% Inhibition” value was -16% and the Z score was 2.28.
CCN(C)C(=O)C1CN(C(=O)c2ccco2)CC1c1cccc(C(F)(F)F)c1 (stereo not drawn) was tested, and the “% Inhibition” value was -10% and the Z score was 1.48.
CCC(CC)n1ncc(C)c1NC(=O)CNC(=O)c1nonc1C was tested, and the “% Inhibition” value was -2% and the Z score was 0.27.
With CC(C)Oc1ccccc1CNC(=O)N1CCCC[C@H]1c1nnc2n1CCCC2 the “% Inhibition” value was -26% and the Z score was 2.61.
Cc1ccc(S(=O)(=O)c2c(C)c(C)n(CC(C)C)c2NC(=O)c2cccs2)cc1 was tested, and the “% Inhibition” value was -8% and the Z score was 0.98.
NC(=O)Cc1nc(CN2CCOCC2)n(-c2cccc3c2CCC3)n1 was tested, and the “% Inhibition” value was 1% and the Z score was -0.07.
With CN(C(=O)c1cc(O)nc2ccccc12)c1ccc(S(C)(=O)=O)cc1 the “% Inhibition” value was -2% and the Z score was 0.2.
For Cc1ncccc1C(=O)N[C@H]1CCOC[C@@H]1Oc1cccc(F)c1, the “% Inhibition” value was -3% and the Z score was 0.32.
In the case of C[C@H](Oc1cnc2ccccc2c1)C(=O)N1CCCC2(CC1)CC2, the “% Inhibition” value was -15% and the Z score was 2.91.
For Cc1noc(C)c1CN1CC2(CCN(c3ccnc4ccccc34)CC2)CC1=O, the “% Inhibition” value was -2% and the Z score was 0.34.
With O=C(NCC1CCS(=O)(=O)C1)C1CC1c1ccc2ccccc2c1 (stereo not drawn) the “% Inhibition” value was -7% and the Z score was 0.76.
With CCCN1CCCN(c2ccnc(C(=O)NCc3ccncc3)c2)CC1 the “% Inhibition” value was -8% and the Z score was 1.5.
